Measured values as given in PMC4336329 (PLoS ONE, 2015).
About 14,000 (4.5%) of roughly 310,000 compounds showed an effect of 50% or more. Effects have a minus sign here. This is one part of the list.

Target: human ether-à-go-go-related gene (hERG) potassium channel (human, UniProt Q12809)
Test: primary screen, population patch clamp on CHO cells stably expressing hERG
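Note: peak tail current of the secondary pulse compared with the same well before compound.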

Chain of human ether-à-go-go-related gene (hERG) potassium channel (Q12809 whole entry, looked up): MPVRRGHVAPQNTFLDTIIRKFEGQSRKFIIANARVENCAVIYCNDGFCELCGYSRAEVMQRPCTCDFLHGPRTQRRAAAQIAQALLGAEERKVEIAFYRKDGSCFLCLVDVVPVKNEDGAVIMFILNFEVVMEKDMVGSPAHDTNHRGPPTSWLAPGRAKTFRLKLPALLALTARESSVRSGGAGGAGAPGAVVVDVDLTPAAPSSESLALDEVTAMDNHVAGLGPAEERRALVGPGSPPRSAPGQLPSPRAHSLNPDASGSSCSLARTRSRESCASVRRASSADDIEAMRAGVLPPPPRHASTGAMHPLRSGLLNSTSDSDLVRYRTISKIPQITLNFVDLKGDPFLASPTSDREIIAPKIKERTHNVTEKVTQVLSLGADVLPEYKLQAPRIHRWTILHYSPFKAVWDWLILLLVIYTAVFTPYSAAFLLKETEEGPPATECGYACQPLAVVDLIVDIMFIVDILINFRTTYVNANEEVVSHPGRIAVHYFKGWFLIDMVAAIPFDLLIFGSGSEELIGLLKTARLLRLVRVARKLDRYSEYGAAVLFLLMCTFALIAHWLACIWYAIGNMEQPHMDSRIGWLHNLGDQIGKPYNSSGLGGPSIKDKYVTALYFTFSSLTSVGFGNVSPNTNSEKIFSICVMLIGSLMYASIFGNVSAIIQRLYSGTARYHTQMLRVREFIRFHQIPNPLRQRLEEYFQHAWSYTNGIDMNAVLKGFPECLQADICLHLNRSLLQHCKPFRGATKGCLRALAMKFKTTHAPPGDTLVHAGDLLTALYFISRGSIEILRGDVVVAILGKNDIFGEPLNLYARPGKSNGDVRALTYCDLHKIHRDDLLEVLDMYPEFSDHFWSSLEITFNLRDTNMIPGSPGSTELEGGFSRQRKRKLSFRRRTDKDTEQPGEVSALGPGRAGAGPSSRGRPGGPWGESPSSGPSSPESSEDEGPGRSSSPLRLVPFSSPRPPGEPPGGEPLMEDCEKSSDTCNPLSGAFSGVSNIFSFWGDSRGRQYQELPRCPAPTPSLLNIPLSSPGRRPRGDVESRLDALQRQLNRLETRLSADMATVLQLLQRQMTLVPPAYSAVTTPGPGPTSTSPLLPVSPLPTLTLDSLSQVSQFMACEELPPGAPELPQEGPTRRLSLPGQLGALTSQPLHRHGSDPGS

Row | SMILES | hERG current change (%, negative = inhibition) at 10uM
1 | O=C(CSc1cccs1)Nc1ccc2ccccc2c1 | 4.71%
2 | O=c1c2sccc2nc(SCc2ccc([N+](=O)[O-])cc2)n1Cc1ccccn1 | -61.6%
3 | Cc1ccccc1Nc1nccc(N(C)C)c1C#N | 11.1%
4 | CCCc1cc(-c2n[nH]c(C)c2-c2ccc(C(=O)OCC)o2)c(O)cc1O | -0.34%
5 | Cc1ccc(-c2cc(O)cc3sc(=O)oc23)cc1C | 12.1%
6 | CC(O)[C@@H](C(=O)N1CCNCC1)n1cc(CCCCN)nn1.Cl (stereo partly drawn) | 14.3%
7 | Cc1onc(-c2ccccc2)c1C(N)=O | 3.15%
8 | Cc1ccnc2nc(C(=O)Nc3nc(-c4ccccn4)cs3)nn12 | 8.69%
9 | Nc1ccccc1N1CCN(C(=O)c2ccccc2)CC1 | 6.81%
10 | COC(=O)c1cc2ccc(OC)c(OC)c2c(=O)s1 | 18.6%
11 | Cc1ccc(C(=O)N2CCC(N3CCC(C(=O)N4CCOCC4)CC3)CC2)cc1C | -16.6%
12 | O=C(CCCC(=O)c1ccccc1)NCc1ccccc1 | 14%
13 | COCCN(C(=O)Nc1ccc(OC)cc1)c1nc2ccccc2s1 | 22.7%
14 | CCOc1cc(-c2noc(N)c2C(=O)OC)cc(OCC)c1OCC | -0.749%
15 | Cc1cc(C)c(NC(=O)/C=C\C(=O)O)c([N+](=O)[O-])c1 | -6.23%
16 | Cc1ccc(C)n1-n1cnc2scc(-c3cccs3)c2c1=O | -9.66%
17 | O=C(Cn1cc([N+](=O)[O-])cn1)Nc1ccn(Cc2c(F)c(F)cc(F)c2F)n1 | -11.7%
18 | COc1ccc(NC(=S)Nc2ccc(N(C)C(C)=O)cc2)cc1 | 4.86%
19 | COc1cc(C(=O)Nn2c(C)nc3ccccc3c2=O)cc(OC)c1OC | 12.8%
20 | O=C1CC(c2ccco2)Cc2nc(N3CCN(Cc4ccc5c(c4)OCO5)CC3)ncc21 (stereo not drawn) | -33.1%
21 | CN(Cc1ccccc1)C(=O)CCS(=O)(=O)c1ccc2c(c1)oc(=O)n2C | 3.61%
22 | COc1ccc(OCCNC(=O)CSc2ccc(C(F)(F)F)cc2[N+](=O)[O-])cc1 | -12.4%
23 | Cc1ccccc1OCC(O)Cn1c(NCCN(C)C)nc2c1c(=O)n(C)c(=O)n2C (stereo not drawn) | -20.3%

Row | SMILES | hERG current change (%, negative = inhibition) at 10uM
24 | Cc1c(C(=O)OCC(=O)NCCN2C(=O)CSC2=O)oc2c1ccc1ccccc12 | -7.84%
25 | CC1CCN(S(=O)(=O)c2cccc(C(=O)Nc3nncs3)c2)CC1 | -7.49%
26 | O=C(CNC(=O)c1ccc2ccccc2c1)NCc1ccc(F)cc1 | 8.64%
27 | COc1ccccc1CNCc1ccc(OC)c(OC)c1OC.O=C(O)C(=O)O | -8%
28 | CCCNC(=O)NC(=O)CSc1ccc2c(c1)OCCO2 | 11.4%
29 | O=C1c2ccc(Oc3ccc4c(c3)C(=O)N(CCCO)C4=O)cc2C(=O)N1CCCO | -1.78%
30 | CCNc1nc(NCC)nc(N/N=C/c2ccc(OC)cc2)n1 | 6.24%
31 | COCCCNC(=O)CNC(=O)c1nn(-c2ccc(OC)cc2)c(=O)c2ccccc12 | 11.1%
32 | COc1ccc(OC)c(N(CC(=O)N2CCN(Cc3ccccc3)CC2)S(C)(=O)=O)c1 | 5.68%
33 | COc1cccc(C2C(C(=O)c3cc4ccccc4o3)=C(O)C(=O)N2CCN(C)C)c1OC (stereo not drawn) | 0.215%
34 | COc1ccc(NC(=O)C2CCCN(S(=O)(=O)c3ccc4c(c3)CCCN4C(C)=O)C2)cc1 (stereo not drawn) | 9.31%
35 | COc1cc(/C=N/NS(=O)(=O)c2ccccc2)c(OC)c(OC)c1 | 16.7%
36 | COc1cccc(NC(=O)CSc2nnc(-c3cccc(OC(C)C)c3)n2N)c1 | 13.5%
37 | O=C(O)CSc1c2c(nc3cc(C(=O)Nc4ccc(F)c(Cl)c4)ccc13)CCCC2 | 6.45%
38 | Cc1cc(Cl)c2oc(C(=O)N(C)Cc3cc(C)[nH]n3)c(C)c2c1 | 0.344%
39 | COc1ccc(Nc2ncnc3sc(-c4ccccc4)cc23)cc1 | -31.6%
40 | O=C(CCn1c(=O)oc2ccccc21)N1CCN(C(c2ccccc2)c2ccccc2)CC1 | -14.6%
41 | C/C(=N\Nc1ccc(C#N)cc1[N+](=O)[O-])c1ccc(O)cc1 | -0.692%
42 | CN1C(=O)NC(c2ccccc2)C2=C1CN(CCc1ccccc1)C2=O (stereo not drawn) | -0.00352%
43 | Clc1ccccc1Cc1noc(CN2CCN(c3cnccn3)CC2)n1 | -14.8%
44 | CCc1nnc(NC(=O)c2cc(-c3ccc(C)o3)nc3ccccc23)s1 | -15.3%
45 | Cc1ccnc(NC(=O)c2cc(-c3ccc(Cl)s3)nc3ccccc23)c1 | 4.31%
